# Assay results as given in PubChem BioAssay AID1963966 (Molecular Pharmacology Branch, DTP, NCI, 2024).
# Certain results were filed several times, with different values. The list is limited to them. The source may hold further records. The records of an entry repeat one measurement (runs, samples, wells, individuals or studies). Brackets with × say how often a value occurs here.
# Tested on: 935938-334-R-J1-PDC spheroids with HUVEC/MSC, viability
# Experiment: Anticancer human tumor 935938-334-R-J1-PDC patient-derived small intestine adenocarcinoma cell line growth inhibition [PI3K]
# Conditions: for viability, T/C: stronger effect = lower value; for IC50: compound alone
# Text: Combinatorial screen of targeted agents with the PI3K inhibitors inavolisib, alpelisib, duvelisib, and copanlisib in multi-cell type tumor spheroids
# A high-throughput screen of multi-cell type tumor spheroids was designed to identify active combinations of targeted small molecules and PI3K pathway inhibitors. Complex spheroids include a stromal component modeled by human endothelial cells (HUVEC) and fibroblasts modeled by human mesenchymal stem cells (MSCs). The concentration ranges selected for each drug and investigational agent were based upon clinically achievable concentrations if the clinical Cmax of the agent was known.
# Compounds. The drugs and investigational agents: inavolisib (NSC800729), alpelisib (NSC765974), duvelisib (NSC772469), copanlisib (NSC816437), ipatasertib (NSC767898), afuresertib (NSC778305), talazoparib (NSC767125), sapanisertib (NSC764658), selumetinib (NSC741078), tovorafenib (DAY101, NSC766906), vemurafenib (NSC761431), ravoxertinib (NSC781343), sotorasib (NSC818433), MRTX1133 (NSC 836407), abemaciclib (NSC 768073), palbociclib (NSC758247), venetoclax (NSC 766270), SY5609 (NSC837396), enzalutamide (NSC755605), and darolutamide (NSC825331), were obtained from the National Cancer Institute (NCI) Developmental Therapeutics Program Chemical Repository. The FDA-approved anticancer drug set is available from the NCI Developmental Therapeutics Program. […] The stock solutions were prepared in dimethyl sulfoxide (DMSO, Sigma-Aldrich, St. Louis, MO, cat. D2650) at 800-fold the tested concentration and stored at -70 degrees C prior to their use. All drugs and investigational agents were tested over a range starting from a high concentration at or near the clinical Cmax and decreasing in half-log increments. If the clinical Cmax for an agent had not been determined, the highest concentration tested was 10 microM.
# Cell Culture. All cells were maintained in an incubator at 37 degrees C and 5% CO2 with 95% humidity. The PDC lines were cultured according to standard operating procedures established by the NCI PDMR (https://pdmr.cancer.gov/sops/default.htm). All PDCs were thawed and cultured in Matrigel-coated flasks prepared with a working solution of 1X Ham's F-12 nutrient mix, without supplementation (Invitrogen, Waltham, MA, cat. 11765054), 100 U/mL penicillin-streptomycin (Invitrogen, cat. 15140122), and 2.5% Matrigel (Corning Inc., Corning, NY, cat. 354248) for the first three passages. The 354836-022-R-J1-PDC, 475296-252-R-J1-PDC, and 997726-040-R-J2-PDC lines were cultured in 6A media, which includes advanced DMEM/F-12 (Thermo Fisher Scientific, cat. 12634028), 10 mM HEPES (Thermo Fisher Scientific, cat. 15630080), 1X GlutaMAX supplement (Thermo Fisher Scientific, cat. 35050061), 0.1 mg/mL primocin (InvivoGen, San Diego, CA, cat. ant-pm-2), 10% defined fetal bovine serum, heat inactivated (HyClone Laboratories Inc., Logan, UT, cat. SH30070.03HI), 50% L-WRN conditioned media (ATCC, cat. CRL-3276), 1.25 mM N-Acetyl-L-cysteine (Sigma-Aldrich, cat. A9165), 10 mM nicotinamide (Sigma-Aldrich, cat. N0636), 1X B-27 supplement (Thermo Fisher Scientific, cat. 17504044), 1X N-2 supplement (Thermo Fisher Scientific, cat. 17502048), and 10 microM Y-27632 dihydrochloride (Tocris Bioscience, Bristol, United Kingdom, cat. 1254). The 624824-186-R-J2-PDC line was cultured in 6C/Colon 1B media, which includes all 6A media components plus 50 ng/mL human EGF recombinant protein (Thermo Fisher Scientific, cat. PHG0311). […]
# 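Further: compound exposure lasted seven days before viability was read.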
# 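Wherever viability, T/C is given: percent of vehicle DMSO treated spheroid viability so 100% = untreated.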
SMILES,"viability, T/C (compound alone 0.0316 µM)","viability, T/C (compound alone 0.1 µM)","viability, T/C (compound alone 0.316 µM)","viability, T/C (compound alone 1 µM)","viability, T/C (compound alone 3.16 µM)",other results
C#Cc1c(F)ccc2cc(O)cc(-c3ncc4c(N5CC6CCC(C5)N6)nc(OCC56CCCN5CC(F)C6)nc4c3F)c12 (stereo not given),"78.1, 100, 73, 86.8%","102, 82, 76.7, 92.8%","91.1, 81.3, 63.8, 93.9%","83.3, 51.4, 65.8, 90.2%",–,–
CC(Nc1ncnc2nc[nH]c12)c1cc2cccc(Cl)c2c(=O)n1-c1ccccc1 (stereo not given),–,"91.8, 92.6, 108, 89.1, 85.5, 79.5, 98.9%","103, 78.1, 73, 101, 92, 96.1, 88.2, 112%","86, 82.8, 116, 97.4, 90.5, 80.9, 108, 85.8%","95.5, 91.4, 86, 109, 73, 73.4, 81.3, 97.2%",–
CC1(C)CCC(CN2CCN(c3ccc(C(=O)NS(=O)(=O)c4ccc(NCC5CCOCC5)c([N+](=O)[O-])c4)c(Oc4cnc5[nH]ccc5c4)c3)CC2)=C(c2ccc(Cl)cc2)C1,–,–,"107, 89.8, 103, 72.6%","73.1, 104, 108, 90.8%",–,"IC50: 6.82 µM, 6.14 µM, 6.46 µM, > 10 µM; viability, T/C (compound alone 10 µM): 31.9, 18.1, 24.6, 72.8%"
CC(C)n1nc(-c2ccc3oc(N)nc3c2)c2c(N)ncnc21,–,–,–,–,–,"viability, T/C (compound alone 0.01 µM): 92.1, 96.1, 78.5, 113%"
CCN1CCN(Cc2ccc(Nc3ncc(F)c(-c4cc(F)c5nc(C)n(C(C)C)c5c4)n3)nc2)CC1,"71.7, 56.7, 66, 95.9%","57, 73.4, 58, 84.9%",–,"43.2, 20.9, 47.9, 46.5%",–,"viability, T/C (compound alone 0.00316 µM): 86.3, 61.6, 75, 90.3%"
Cn1ncnc1[C@H]1c2n[nH]c(=O)c3cc(F)cc(c23)N[C@@H]1c1ccc(F)cc1,–,–,–,–,–,"viability, T/C (compound alone 0.00316 µM): 68.1, 63.8, 85.3, 90.4%"
CCCS(=O)(=O)Nc1ccc(F)c(C(=O)c2c[nH]c3ncc(-c4ccc(Cl)cc4)cc23)c1F,–,–,–,"106, 141, 103, 111%",–,–
CC(=O)c1c(C)c2cnc(Nc3ccc(N4CCNCC4)cn3)nc2n(C2CCCC2)c1=O,–,"56.4, 21.6, 75.7, 75.2%",–,–,–,"viability, T/C (compound alone 0.000316 µM): 87.1, 48.4, 75.1, 107%"
CC(C)NCC(C(=O)N1CCN(c2ncnc3c2C(C)CC3O)CC1)c1ccc(Cl)cc1 (stereo not given),"83.5, 55.2, 91.5, 98%",–,–,–,"62.7, 35.8, 66, 63%","viability, T/C (compound alone 10 µM): 39.5, 26.4, 52, 53.7%"
CNC(=O)c1ccc(N2C(=S)N(c3ccc(C#N)c(C(F)(F)F)c3)C(=O)C2(C)C)cc1F,–,–,–,"83.5, 88.2, 116, 74.5%",–,–
CC(Cn1ccc(-c2ccc(C#N)c(Cl)c2)n1)NC(=O)c1cc(C(C)O)[nH]n1 (stereo not given),–,"106, 77.8, 87.7, 77.4%",–,"89.5, 66, 98.7, 97.7%","116, 86.1, 103, 105%","viability, T/C (compound alone 10 µM): 98, 69.9, 94.5, 95.5%"
Cc1nc(NC(=O)N2CCCC2C(N)=O)sc1-c1ccnc(C(C)(C)C(F)(F)F)c1 (stereo not given),"88.6, 95, 112, 96.7, 80.6, 75.9, 89.3, 98%","91.6, 78.4, 73.9, 79.5, 97.1, 79.4, 100, 86.2%","66.2, 72.7, 59.7, 87.9, 73.6, 76.9, 81.7, 87.3%",–,"49.5, 55, 77.7, 62, 52.9, 60.5, 50.8, 64.8%","IC50 (run of 04/24/2023): 6.45 µM, 8.26 µM, > 10 µM, 8.05 µM, 4.48 µM, 4.85 µM, 6.15 µM"
Cn1cnc2c(F)c(Nc3ccc(Br)cc3Cl)c(C(=O)NOCCO)cc21,–,–,–,–,–,"viability, T/C (compound alone 0.00949 µM): 57.7, 81.2, 76.8, 91.5%"
C=CC(=O)N1CCN(c2nc(=O)n(-c3c(C)ccnc3C(C)C)c3nc(-c4c(O)cccc4F)c(F)cc23)C(C)C1 (stereo not given),"106, 74.2, 97.6, 84.9%",–,"79.6, 105, 112, 125%",–,"119, 98, 87.5, 114%",–
C[C@@H](NC(=O)c1ncnc(N)c1Cl)c1ncc(C(=O)Nc2cc(C(F)(F)F)c(Cl)cn2)s1,–,"89.6, 112, 103, 115%","115, 84.5, 119, 112%","131, 132, 103, 102%","117, 94.5, 97.9, 122%",–
Cn1nccc1Nc1nccc(-c2ccn(C(CO)c3ccc(Cl)c(F)c3)c(=O)c2)n1 (stereo not given),–,"93, 85.5, 60.1, 80.7%",–,–,–,–
Cn1ncc(Cl)c1-c1cc(C(=O)NC(CN)Cc2cccc(F)c2)sc1Cl (stereo not given),"90.6, 104, 76.9, 96%",–,–,–,–,"viability, T/C (compound alone 10 µM): 43.2, 85, 64.1, 61.1%"
CC(Nc1ccc2c(c1)OCCn1cc(N3C(=O)OCC3C(F)F)nc1-2)C(N)=O (stereo not given),–,"102, 111, 74.4, 100, 94.5, 74, 90.3, 75.2%","77.2, 84.8, 86.2, 75, 82.2, 78.7, 80.3, 110%","54.6, 70.9, 75.6, 70.4, 81, 55, 63.3, 78.2%",–,"viability, T/C (compound alone 0.00316 µM): 83.5, 76.2, 83.6, 84.9, 106, 89, 87.9, 96.2%; viability, T/C (compound alone 0.01 µM): 95.6, 99.6, 76.8, 94.3, 99.5 (2×), 84.7, 72.1%"
